# Test results: the supplement of paper PMC4604168 (melanoma cell lines)
# Some of the results follow. Many values rest on one well or one pass, so single values are uncertain.
# System: IPC-298
# Assay: cell count relative to DMSO control; melanoma cells; higher = more viable cells
# Conditions: library dose: low library concentration; 72 h
# 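Also: cell number obtained by counting DAPI-stained nuclei in high-throughput microscope images with image analysis software, screen run in 1,536-well plates.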
row,SMILES,cell count [%]
1,"COc1ccc(C2=N[C@@H](c3ccc(Cl)cc3)[C@@H](c3ccc(Cl)cc3)N2C(=O)N2CCNC(=O)C2)c(OC(C)C)c1 [Nutlin-3] + NC1(c2ccc(-c3nc4ccn5c(=O)[nH]nc5c4cc3-c3ccccc3)cc2)CCC1 [MK2206] (first compound 0.1 µM, partner dose 0.4 µM)",104
2,"CC(C)C[C@H](NC(=O)[C@H](Cc1ccccc1)NC(=O)c1cnccn1)B(O)O [Bortezomib] + CS(=O)(=O)CCNCc1ccc(-c2ccc3ncnc(Nc4ccc(OCc5cccc(F)c5)c(Cl)c4)c3c2)o1 [lapatinib] (first compound 0.001 µM, partner dose 0.8 µM)",73.7
3,"CC(C)C[C@H](NC(=O)[C@H](Cc1ccccc1)NC(=O)c1cnccn1)B(O)O [Bortezomib] + C[C@]1(c2nc3c(C(N)=O)cccc3[nH]2)CCCN1 [Veliparib] (first compound 0.001 µM, partner dose 1.4 µM)",87
4,"Cc1cc(Nc2cc(N3CCN(C)CC3)nc(/C=C/c3ccccc3)n2)n[nH]1 + COCC[n+]1c2c(n(Cc3cnccn3)c1C)C(=O)c1ccccc1C2=O [YM155] (first compound 0.04 µM, partner dose 0.0004 µM)",93.4
5,"Cc1cn(-c2cc(NC(=O)c3ccc(C)c(Nc4nccc(-c5cccnc5)n4)c3)cc(C(F)(F)F)c2)cn1 [nilotinib] + CC(C)C[C@H](NC(=O)[C@H](Cc1ccccc1)NC(=O)c1cnccn1)B(O)O [Bortezomib] (first compound 0.2 µM, partner dose 0.001 µM)",99.1
